PubChem BioAssay (NCATS)
Inconclusive means that the source gave no clear call. Such entries were picked first, then a sample of the others. For some of these results: No potency is given beside an inconclusive call; the fits are too rough. The source made the active and inactive calls. Calls come from the whole dose curve; as a rule, active = well fitted curve in the direction sought with a large enough effect; inconclusive = small, poorly fitted or top-dose-only effect, or another doubt; inactive = no such curve, though single readings can be large; an effect the other way counts as inactive or inconclusive.

Key:
[1] = qHTS to identify inhibitors of the type 1 interferon - major histocompatibility complex class I in skeletal muscle: primary screen against the NCATS LOPAC collection (AID 1347405);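 note: human myoblasts with HiBiT tag on endogenous HLA-B stimulated by IFN-beta; lytic HiBiT luminescence reporting HLA-B protein level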
Summary of the method: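 IFN-beta-stimulated (4 ng/ml) HLA-B HiBiT knock-in myoblasts, compound-treated 24 hrs up to 46 uM final; signal via LgBiT complementation and furimazine luminescence.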

[2] = qHTS to identify inhibitors of the type 1 interferon - major histocompatibility complex class I in skeletal muscle: primary screen against the NCATS Pharmaceutical Collection (AID 1347407); conditions: human skeletal muscle cells, IFN-b-induced MHC-I HiBiT luminescence, 24 h; activity change, negative = inhibition: at 45.9 µM (top of the series);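 note: luminescence of HiBiT knocked into endogenous HLA-B as interferon-induced MHC class I level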
Summary of the method: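 Compounds […] were added to CRISPR-engineered HLA-B-HiBiT C25cl48 human myoblasts with 4.0 ng/ml IFN-beta. After 24 hrs at 37 C, cells were lysed and HiBiT luminescence measured.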

[3] = qHTS to identify inhibitors of the type 1 interferon - major histocompatibility complex class I in skeletal muscle: primary screen against the NCATS Mechanism Interrogation Plate v5.0 (MIPE) Libary (AID 1347411); conditions: iHSKM cells + IFN-b, HiBiT-tagged MHC-I luminescence, 24 h; activity change, negative = inhibition: at 45.8 µM (top of the series); note: nearly all actives have a fitted effect of over 65% in size
Summary of the method: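 IFN-beta-driven (4 ng/ml) HLA-B-HiBit expression in CRISPR-tagged C25cl48 myoblasts; compounds 11-pt, 1:3, max 46 uM, 24 hr exposure; lytic NanoLuc complementation luminescence.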

[4] = Primary qHTS for inhibitors of La Crosse Virus (LACV) - induced cell death in SH-SY5Y cells (AID 1508616)
Summary of the method: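 Screening measures cell viability in LACV-infected SH-SY5Y cultures. Compound was added before virus (0.01 MOI), and ATP was detected by luminescence 6 days later.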

[5] = Validation qHTS assay for inhibitors of Activation Induced Cytidine Deaminase (AID): UDG Counterscreen signal (AID 1347427); conditions: biochemical UDG counterscreen, fluorescence signal
Summary of the method: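 Fluorescence at 560 nm excitation, 665 nm emission reports UDG signal after 250 mM NaOH (2x) addition and 30 min. Enzymes (AID 1 uM, UDG 2 U/mL, at 4/3x) preincubated 10 min with compound, then 4 h with 4x 250 nM DJC20/DJC23 substrate at room temperature.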

[6] = Secretion counterscreen for inhibitors of the SERCaMP assay screened against the NCATS CANVASS Library (AID 1347390);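 note: light from luciferase secreted into medium read as a measure of general secretion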
Source text: Natural products and their derivatives continue to be wellsprings of nascent therapeutic potential. However, many laboratories have limited resources for biological evaluation, leaving their previously isolated or synthesized compounds largely or completely untested. To address this issue, the Canvass library of natural products was assembled (https://tripod.nih.gov/canvass), in collaboration with academic and industry researchers, for quantitative high-throughput screening (qHTS) across a diverse set of cell-based and biochemical assays. The pure (>85% purity by liquid chromatography/mass spectrometry [LC/MS]) Canvass library of 346 natural products were submitted by 45 academic laboratories and companies around the world. We collected pure natural products to circumvent deconvolution and structure elucidation due to time and resource limitations. The library was formatted into 1536-well plates and evaluated in 50 qHTS (in an 11-pnt concentration series) bioassays with broad scope of disease-relevant mechanisms. The resulting data set from 50 different assays was then systematically analyzed to identify overall trends and specific natural products with interesting biological activities. Reported herein are the results of each individual qHTS and their corresponding assay protocol. Compounds that interfere with the secretory pathway can show activity in the SERCaMP assay. This type of false positive is identified using a constitutively secreted GLuc reporter. National Center for Advancing Translational Sciences (NCAwsTS), Rockville, MD National Institute of Health (NIH), Bethesda, Maryland
SERCaMP secretion assay protocol: 1. In a white-solid bottom 1536-well tissue culture plate (Corning 7494), 5 uL of SH-SY5Y-GLuc STOP cells were dispensed using a Multidrop Combi (Thermo Fisher Scientific) at a final concentration of 1000 cells / well. 2. […] Luminescence signal was obtained via the ViewLux plate reader (Perkin Elmer) using the clear emission filter and 1x binning, 5 seconds exposure settings.

[7] = qHTS for activators of Nrf2/ARE signaling pathway screened against the NCATS CANVASS Library (AID 1347391); conditions: ARE-bla HepG2, beta-lactamase reporter, 16 h; note: nearly all actives have a fitted effect of over 60% in size
Summary of the method: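 Activation of Nrf2/ARE was scored in ARE-bla HepG2 cells after 16 h compound exposure using CCF4 beta-lactamase fluorescence ratio readings.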
Potency is the fitted concentration of half-maximal effect; tags give direction and shape of the fitted curve.

Structure (SMILES): O=C1Cc2cc(CCN3CCN(c4nsc5ccccc45)CC3)c(Cl)cc2N1
- Potency [1]: inconclusive [inhibitor, single point]

Structure (SMILES): CCN(CC)CCCC(C)Nc1c2ccc(Cl)cc2nc2ccc(OC)cc12 (stereo unspecified)
- Potency [1]: inconclusive [inhibitor, partial curve, poor fit]
- Potency [2]: inactive
- Potency [3]: inconclusive [inhibitor, partial curve, poor fit]
- Potency [4]: inconclusive [inhibitor, partial curve, poor fit]

Structure (SMILES): O=C1c2c(O)ccc(O)c2C(=O)c2c(NCCNCCO)ccc(NCCNCCO)c21
- Potency [1]: active: 2.24 µM
- Potency [2]: active: 11.8 µM
- Potency [3]: active: 0.93 µM
- Potency [5]: active: 31.6 µM

Structure (SMILES): O=Nc1c(-c2c(O)[nH]c3ccccc23)[nH]c2ccccc12
- Potency [1]: active: 11.2 µM

Structure (SMILES): CN1CCN(C2Cc3ccccc3Sc3ccc(Cl)cc32)CC1 (stereo unspecified)
- Potency [1]: inconclusive [inhibitor, single point]
- Potency [2]: inconclusive [inhibitor, single point]

Structure (SMILES): CC(C)(C)c1ccc(C(=O)CCCN2CCC(OC(c3ccccc3)c3ccccc3)CC2)cc1
- Potency [1]: inconclusive [inhibitor, single point]

Structure (SMILES): O=C(O)c1cc(O)c(O)c(O)c1
- Potency [6]: inconclusive [inhibitor, partial curve, poor fit]
- Potency [7]: inconclusive [activator, full curve]

Structure (SMILES): O=c1cc(N2CCOCC2)oc2c(-c3ccccc3)cccc12
- Potency [1]: inconclusive [inhibitor, partial curve, poor fit]
